Sequences with one replicate were seen in a single cluster, so their values are uncertain.
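Further: ATP exposure 15 min at 22 °C before imaging.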

One data set deals with ATP. The data set can be described thus: switch fluorescence ratio, 500 uM ATP over buffer (Cy3 cluster intensity, sum of 5 cycles each) (fold (ratio)); higher = stronger signal-on switching upon ATP binding; sequences stand for … in TCGTCGGCAGCGTCAGATGTGTATAAGAGACAGTTTTTTTTTTTTTTTTTTTTTTTTT…TC. Conditions: aptamer strand: ATP DNA aptamer (quencher-CACCTGGGGGAGTATTGCGGAGGAAGG + anchor), 100 nM annealed; ATP concentration: 500 uM; one replicate. Summed up: (§1)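 Clusters carrying Cy3-labelled switching strands on a modified Illumina MiSeq flow-cell were annealed to 100 nM quencher-labelled ATP aptamer and imaged in selection buffer. They were imaged again after 15 min with 500 uM ATP at 22 °C, over five buffer/ATP cycles with NaOH stripping and re-annealing in between. For each cluster, the fluorescence ratio is the summed Cy3 intensity of the target cycles divided by that of the buffer cycles, averaged per switch-domain sequence. Clusters outside 100-1000 RFU were left out.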
In the case of GATCTCCATC, the switch fluorescence ratio was determined as 1.01.
Turning to AGGAACTCTA, the switch fluorescence ratio amounted to 1.
For the sequence CTTGAAGATA, the switch fluorescence ratio was 1.03.
As for TGGATGTCTT, the switch fluorescence ratio is 1.01.
Turning to GTGGGGCTAC, the switch fluorescence ratio was found to be 1.03.
As for TCTAGTTG, the switch fluorescence ratio was 0.995.
Still for that read-out and setting: as for TTTATGCT, the figure is 0.97.
Still for that read-out and setting: as for CTGTTTGGTT, the figure is 1.01; as for ACCTCCTGT, 1.08.
Same read-out and setting: to GATACGGATA belongs 1.04; to AGACCTTACA, 1.32.
Consider TTTTCTTAAG, for which the switch fluorescence ratio was 1.02.
In the case of CACGTGAAGG, the switch fluorescence ratio was determined as 1.02.
For AAGGTTTACT, the switch fluorescence ratio is 1.02.
As to CGATGGATA, the switch fluorescence ratio was 1.02.
As to CTCTTGGATG, the switch fluorescence ratio came out at 1.02.
Regarding TATGCCAGT, the switch fluorescence ratio was 1.01.
On the same count and under the same terms, as for GTTGTGGACG, the figure is 0.917.
Still for that read-out and setting: to GCCGGCTTTT belongs 0.994; to CCCCTCCCCG, 1.65.
As for GGGTCTATCC, the switch fluorescence ratio worked out at 1.01.
Take TACTTGGGGA: the switch fluorescence ratio was determined as 0.963.
Consider GCGCCCCGTG, for which the switch fluorescence ratio was determined as 1.18.
Turning to TGGCGCCCCT, the switch fluorescence ratio was 0.998.
Consider CTGTTGCGCG, for which the switch fluorescence ratio stood at 1.04.
Regarding CGCCACAGTA, the switch fluorescence ratio is 1.03.
As for TCGGACCGCG, the switch fluorescence ratio came out at 1.01.
Same read-out and setting: to GCGAGGTTGC belongs 1.04; to GGTTTTAGAG, 0.964.
On to CTTGGCAGCC, for which the switch fluorescence ratio turned out to be 0.998.
As to GAATTTATGA, the switch fluorescence ratio came out at 1.01.
On to TACGTTAAAT, for which the switch fluorescence ratio turned out to be 1.13.
Regarding CACAACTCCT, the switch fluorescence ratio was 1.08.
With GTTTTTAACC, the switch fluorescence ratio stood at 0.978.
On the same count and under the same terms, to TCGCCCTTGT belongs 1.02; to CGACAAACTT, 1.12; to CCAATACAAC, 1.41.
Turning to TGGGGAGTA, the switch fluorescence ratio came out at 0.965.
As to AGCCCAAAAG, the switch fluorescence ratio came out at 1.01.
For the sequence CAGTAGCAGT, the switch fluorescence ratio amounted to 3.27.
With AAATCTTACG, the switch fluorescence ratio was found to be 1.04.
Turning to ACGCGCCTCG, the switch fluorescence ratio turned out to be 0.987.
Consider ACGCCCGCTT, for which the switch fluorescence ratio was determined as 1.29.
For TTTCACTCTG, the switch fluorescence ratio stood at 1.05.
For the sequence TCACAACCTC, the switch fluorescence ratio worked out at 1.08.
On to AATACTAATA, for which the switch fluorescence ratio is 0.991.
For the sequence CTTGGTTGGC, the switch fluorescence ratio stood at 0.979.
As to CGTTCAGACA, the switch fluorescence ratio worked out at 0.997.
Regarding CAAGATACGT, the switch fluorescence ratio was 1.1.
TCCTGGGCA: the switch fluorescence ratio turned out to be 1.05.
For AAAGGTCCAT, the switch fluorescence ratio was 0.986.
In the case of AGAGTGTCAT, the switch fluorescence ratio turned out to be 1.03.
ACCGAGACAT: the switch fluorescence ratio is 1.07.
Turning to CCGAGCCGAT, the switch fluorescence ratio is 1.58.
As for TGGCAGGCC, the switch fluorescence ratio came to 0.948.
With ACGGGCTAAG, the switch fluorescence ratio was 1.02.
With CGCCGCTGCT, the switch fluorescence ratio is 1.23.
Regarding GAGAGTAAAG, the switch fluorescence ratio came to 1.03.
Turning to TTGGATGGAG, the switch fluorescence ratio came to 0.938.
As for GCTTTCAGTT, the switch fluorescence ratio turned out to be 0.988.
Same read-out and setting: to GGTAGGGCAG belongs 1.03; to TTGAATTCTT, 0.988; to TGGTAAAGAA, 0.988.
Take GCTAGCCAAC: the switch fluorescence ratio came out at 1.04.
For CCACGTACCT, the switch fluorescence ratio came out at 1.6.
Still for that read-out and setting: as for TCTGATCATC, the figure is 1.06; as for ATGGTTGATA, 1.02; as for GATGTAATGA, 1.02.
As to AATTGGAG, the switch fluorescence ratio was 0.99.
Turning to AGAGTCTACA, the switch fluorescence ratio amounted to 1.04.
Still for that read-out and setting: as for GCCCGATGCT, the figure is 1.01.
Still for that read-out and setting: to CCAGAATGTA belongs 0.969; to ACTGAGATAA, 1.04.
With GAATGTAGAT, the switch fluorescence ratio worked out at 0.988.
On the same count and under the same terms, to GTAGCAGCA belongs 1.14; to TCAAGGCATG, 0.995.
For ATGTCCTTTT, the switch fluorescence ratio amounted to 0.994.
Take AGGGCTGGTT: the switch fluorescence ratio came out at 1.03.
CGTTTTGGCC: the switch fluorescence ratio was determined as 0.985.
As for CAGTCCGGAT, the switch fluorescence ratio worked out at 0.991.
Turning to TTAAAATG, the switch fluorescence ratio is 0.964.
On the same count and under the same terms, as for GTAGTACCAG, the figure is 0.99; as for AGTAGCTCCA, 1.03; as for TCTTACATTT, 1.04.
On the same count and under the same terms, to ACAGGCCAAA belongs 1.29; to GCCTCGAGGA, 1.03; to AGAAAATACG, 1.
Consider ACACGATGG, for which the switch fluorescence ratio was found to be 1.04.
Regarding TGGGGCCGTC, the switch fluorescence ratio stood at 0.989.
With ATACCACACA, the switch fluorescence ratio amounted to 1.4.
For the sequence AATGCGATGG, the switch fluorescence ratio came out at 1.15.
For the sequence GGAGGACTGT, the switch fluorescence ratio amounted to 1.
Take GAAGATGGGA: the switch fluorescence ratio was 0.988.
With GATCCCCCCT, the switch fluorescence ratio was 1.15.
Consider GGCGGTTGGC, for which the switch fluorescence ratio worked out at 1.02.
Turning to TGGTGCTTCT, the switch fluorescence ratio was 1.
For the sequence ACTCGCGGAA, the switch fluorescence ratio turned out to be 1.01.
For the sequence ATTTACTCGG, the switch fluorescence ratio was determined as 1.06.
On to GAAGTGGTTC, for which the switch fluorescence ratio worked out at 0.99.
For the sequence GATGGATGAG, the switch fluorescence ratio amounted to 1.01.
For the sequence GAACTGTCTT, the switch fluorescence ratio was found to be 0.967.
For the sequence TAATAAATTG, the switch fluorescence ratio was 1.01.
Consider AGCGCAGTAC, for which the switch fluorescence ratio amounted to 3.91.
As for AGAGCTACTA, the switch fluorescence ratio was found to be 1.06.
Consider GTTTAGCAAC, for which the switch fluorescence ratio was determined as 1.09.
On to AGAGGATGG, for which the switch fluorescence ratio stood at 1.02.
Turning to ACCTCCTACT, the switch fluorescence ratio is 1.35.
Still for that read-out and setting: to GTAATGTACA belongs 0.998; to ATTGTACTAT, 0.978; to CGGGGGACTT, 0.999.
As to CTTGAATGAA, the switch fluorescence ratio is 0.966.

The subject of the next data set is ATP. The experiment in a line: switch fluorescence ratio, 500 uM ATP over buffer (Cy3 cluster intensity, sum of 5 cycles each) (fold (ratio)); higher = stronger signal-on switching upon ATP binding. The following applies: aptamer strand: ATP DNA aptamer (quencher-CACCTGGGGGAGTATTGCGGAGGAAGG + anchor), 100 nM annealed; ATP concentration: 500 uM; one replicate. Summed up: as §1
In the case of “TCGTCGGCAGCGTCAGATGTGTATAAGAGACAGTTTTTTTTTTTTTTTTTTTTTTTTTTATC”, the switch fluorescence ratio was 1.01.

The values are drawn from the supplement of paper PMC10126150.
